Article PMC4336329 (PLoS ONE, 2015)
About 2,200 (0.71%) of roughly 310,000 compounds showed an effect of 50% or more. The effect is printed as a negative number. The list shows a part of the results.

biological target: human ether-à-go-go-related gene (hERG) potassium channel (human, UniProt Q12809); test: primary screen, population patch clamp on CHO cells stably expressing hERG
Sequence (Q12809 whole entry, looked up): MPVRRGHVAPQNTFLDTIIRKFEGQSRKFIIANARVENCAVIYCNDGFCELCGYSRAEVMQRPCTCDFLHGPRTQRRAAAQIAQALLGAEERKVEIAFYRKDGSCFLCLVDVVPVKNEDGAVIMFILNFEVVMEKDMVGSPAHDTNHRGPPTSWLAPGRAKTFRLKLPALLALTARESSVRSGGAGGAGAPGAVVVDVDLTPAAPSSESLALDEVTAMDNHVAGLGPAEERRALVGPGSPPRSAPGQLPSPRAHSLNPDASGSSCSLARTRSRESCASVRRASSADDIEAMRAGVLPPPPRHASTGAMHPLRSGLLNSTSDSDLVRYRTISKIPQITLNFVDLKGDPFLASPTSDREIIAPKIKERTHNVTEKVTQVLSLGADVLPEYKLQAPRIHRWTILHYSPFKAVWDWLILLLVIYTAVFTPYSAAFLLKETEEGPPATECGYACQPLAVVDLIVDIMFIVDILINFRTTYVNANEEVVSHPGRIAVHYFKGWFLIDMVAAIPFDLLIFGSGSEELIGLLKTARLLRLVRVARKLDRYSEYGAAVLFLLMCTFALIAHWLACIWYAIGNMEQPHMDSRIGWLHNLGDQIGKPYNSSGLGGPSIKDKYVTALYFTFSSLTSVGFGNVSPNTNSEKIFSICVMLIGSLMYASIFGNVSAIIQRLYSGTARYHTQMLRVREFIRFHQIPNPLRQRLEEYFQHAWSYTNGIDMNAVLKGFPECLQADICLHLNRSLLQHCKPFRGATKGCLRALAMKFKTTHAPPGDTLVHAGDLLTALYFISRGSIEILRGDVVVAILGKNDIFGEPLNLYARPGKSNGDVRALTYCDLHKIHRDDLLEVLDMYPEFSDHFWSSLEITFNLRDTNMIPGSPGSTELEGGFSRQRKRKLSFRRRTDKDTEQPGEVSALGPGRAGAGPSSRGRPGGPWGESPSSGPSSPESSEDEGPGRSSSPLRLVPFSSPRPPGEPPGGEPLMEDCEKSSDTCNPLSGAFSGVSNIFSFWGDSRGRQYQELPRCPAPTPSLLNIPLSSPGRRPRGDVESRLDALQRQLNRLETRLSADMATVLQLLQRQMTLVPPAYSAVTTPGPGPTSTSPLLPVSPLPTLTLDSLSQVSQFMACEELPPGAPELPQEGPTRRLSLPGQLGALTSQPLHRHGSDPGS

Row | Compound | hERG current change (%, negative = inhibition) at 1uM [%]
1 | CC(C)(C)c1ccc(-n2ncc3c2CCCC3NC(=O)c2cnccn2)cc1 (stereo not shown) | 5.49
2 | Cc1ccc(Nc2ncnc3c2cnn3C)cc1 | -19
3 | CC(=O)c1ccc(NC(=O)Cn2c3ccccc3c3nc(=O)cc(C)n32)cc1 | 5.54
4 | O=C(NCCN1CCC(Cc2ccccc2)CC1)C1CCN(S(=O)(=O)N2CCC3(CC2)OCCO3)CC1 | 6.01
5 | Cc1nn(Cc2ccccc2)c(C)c1C(=O)NCCN1C(=O)S/C(=C\c2ccc(F)cc2)C1=O | 5.07
6 | Cc1ccc(SCC2=NN(c3nc(C)cc(C)n3)C(=O)C2)cc1 | 10.4
7 | CC(=O)OCC[N+](C)(C)C.[O-][Cl+3]([O-])([O-])[O-] | 11.1
8 | Cc1nc2ccc(NC(=S)NC3CC3)cc2nc1C | 5.13
9 | CC(=O)N(C(C)=O)c1ccc2nc(C)[nH]c(=O)c2c1 | 12.1
10 | Cc1cc(C(=O)COC(=O)CCC(=O)c2ccc3c(c2)OCCO3)c(C)n1Cc1ccco1 | 12
11 | CC(=O)NCCn1c(SCc2cc(=O)n3cc(Cl)ccc3n2)nc2ccccc2c1=O | -25.5
12 | c1ccc(-c2nnc(CSc3nnc(-c4ccncc4)n3Cc3ccco3)o2)cc1 | -8.88
13 | COc1ccc(/C=C(/C(=O)Nc2ccccc2C(=O)N2CCCC2)c2ccccc2)cc1 | 8.37
14 | Cc1c(NS(=O)(=O)c2ccc(NC3CCCC3)c([N+](=O)[O-])c2)c(=O)n(-c2ccccc2)n1C | 7.77
15 | COCC(=O)Nc1nc2n(n1)C(c1ccccc1Cl)CC(c1ccc(OC)cc1)N2 (stereo not shown) | -2.3
16 | COc1ccc(C)cc1NC(=O)C(NCC1CCCO1)c1ccccc1 (stereo not shown) | -18.8
17 | CN(c1ccc(-c2csc(NC(=O)C3CC(=O)N(Cc4ccco4)C3)n2)cc1)S(C)(=O)=O (stereo not shown) | 3.8
18 | CN(C)CCCN(Cc1ccccc1)C(=S)Nc1ccc(OC(F)F)cc1 | -43.7
19 | CCn1cc(C(=O)NCC(OC)OC)c(=O)c2cc(S(=O)(=O)N3CCOCC3)ccc21 | 12
20 | COc1ccc(N(Cc2ccccc2)C(=O)CSc2nnc(Cn3nnc4ccccc43)o2)cc1 | 9.42
21 | COCCNC(=S)N(Cc1cccnc1)Cc1ccc(OC)c(OC)c1.O=C(O)C(=O)O | 11.3
22 | Cc1cc(C(=O)CSc2nnc(-c3ccccc3)n2-c2ccccc2)c(C)n1-c1ncn[nH]1 | 16.7

Row | Compound | hERG current change (%, negative = inhibition) at 1uM [%]
23 | CCc1noc(C)c1C(=O)NNC(=O)c1ccccc1F | 18.1
24 | c1ccc(-c2onc(-c3ccco3)c2-c2ccc3[nH]ccc3c2)cc1 | 13.2
25 | CSCCC(NC(=O)c1cccc(S(=O)(=O)N2CCOCC2)c1)c1nc2ccccc2[nH]1 (stereo not shown) | 10.6
26 | COCCN1C(=O)/C(=C/c2ccc(OCc3ccc(C(=O)O)cc3)c(OC)c2)SC1=Nc1ccccc1 | 2.85
27 | CC(=NCCN1CCNCC1)C1=C(O)CC(C)(C)CC1=O | 7.57
28 | O=c1cc(CSc2nnc(-c3ccco3)o2)c2ccccc2[nH]1 | 2.65
29 | Cc1nc2c(-c3ccccc3)c(C)nn2c(C)c1CCC(=O)O | 4.88
30 | Cn1c(/N=C/c2ccc3c(c2)OCO3)nc2ccccc21 | 1.23
31 | COc1cc(C)cc(CN2CC=C(c3ccccc3)CC2)c1O | -5.94
32 | O=C(C[n+]1ccc2ccccc2c1)Nc1cc(C(F)(F)F)ccc1Cl.[Cl-] | -13.1
33 | Cc1nn(CCCC(=O)Nc2nccs2)c(C)c1[N+](=O)[O-] | 5.88
34 | COC(=O)c1ccc(-n2nnnc2SC)cc1 | 2.86
35 | CCc1cc(Br)ccc1NC(=S)NCCc1ccccc1 | 13.2
36 | CN=C(SCc1cc2c(cc1Cl)OCO2)c1c(O)n(C)c(=O)n(C)c1=O | 11.4
37 | O=C(NN(C(=O)C1CC1)c1nc2ccccc2s1)C1CC1 | 11.5
38 | CCOc1ncccc1C(=O)Nc1c(C)n(C)n(-c2ccccc2)c1=O | 11.8
39 | CCn1c(SCC(=O)Nc2sc3c(c2C(N)=O)CCC(C)C3)nnc1-c1ccco1 (stereo not shown) | -1.16
40 | CC(=O)Nc1nc(-c2ccc([N+](=O)[O-])cc2)cs1 | 6.83
41 | Cc1cc(S(=O)(=O)NCC(C)C)ccc1OCC(=O)NCC1CCCO1 (stereo not shown) | 17
42 | Cc1cccc(N2CCN(C(=O)c3ccc(N4CCCC4=O)cc3)CC2C)c1 (stereo not shown) | 5.09
43 | COc1ccc(/C=C/C(=O)Oc2cccc(/C=N/NC(=O)COc3c(C)cccc3C)c2)cc1 | 15.6
